Laboratory results from the supplement of paper PMC12578646, “Prodrug florfenicol amine is activated by intrinsic resistance to target Mycobacterium abscessus” (Nature Microbiology, 2025).

Assays:
[1] = system: Mycobacterium abscessus ATCC 19977 WhiB7 L37P
Procedure: (§1)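 384-well two-fold dose series, two replicates; 5 days at 37 °C, then 24 h with resazurin; fluorescence scaled to growth and killed controls.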

[2] = system: Mycobacterium abscessus ATCC 19977 ΔwhiB7
Procedure: as §1

[3] = system: Mycobacterium abscessus ATCC 19977 WhiB7 R76del
Procedure: as §1

[4] = system: Mycobacterium abscessus ATCC 19977 Δeis2
Procedure: as §1

[5] = system: Mycobacterium abscessus ATCC 19977 Eis2 Y284*
Procedure: as §1

[6] = system: Mycobacterium abscessus ATCC 19977 WhiB7 F24fs
Procedure: as §1

[7] = system: Mycobacterium abscessus ATCC 19977 Eis2 Y227D
Procedure: as §1

[8] = system: Mycobacterium abscessus ATCC 19977 WhiB7 A51T
Procedure: as §1

[9] = system: Mycobacterium abscessus ATCC 19977 Eis2 E120fs
Procedure: as §1

[10] = system: Mycobacterium abscessus ATCC 19977 WhiB7 T70fs
Procedure: as §1

[11] = system: Mycobacterium abscessus ATCC 19977 Eis2 T258R
Procedure: as §1

[12] = system: Mycobacterium abscessus ATCC 19977 Eis2 Y255*
Procedure: as §1

[13] = system: Mycobacterium abscessus ATCC 19977 WhiB7 L37P; test: growth relative to untreated wells; higher = more growth (less inhibition)
Procedure: as §1

[14] = system: Mycobacterium abscessus ATCC 19977 ΔwhiB7; test: as above
Procedure: as §1

[15] = system: Mycobacterium abscessus ATCC 19977 WhiB7 R76del; test: as above
Procedure: as §1

[16] = system: Mycobacterium abscessus ATCC 19977 Δeis2; test: as above
Procedure: as §1

[17] = system: Mycobacterium abscessus ATCC 19977 Eis2 Y284*; test: as above
Procedure: as §1

[18] = system: Mycobacterium abscessus ATCC 19977 WhiB7 F24fs; test: as above
Procedure: as §1

[19] = system: Mycobacterium abscessus ATCC 19977 Eis2 Y227D; test: as above
Procedure: as §1

[20] = system: Mycobacterium abscessus ATCC 19977 WhiB7 A51T; test: as above
Procedure: as §1

[21] = system: Mycobacterium abscessus ATCC 19977 Eis2 E120fs; test: as above
Procedure: as §1

[22] = system: Mycobacterium abscessus ATCC 19977 WhiB7 T70fs; test: as above
Procedure: as §1

[23] = system: Mycobacterium abscessus ATCC 19977 Eis2 T258R; test: as above
Procedure: as §1

[24] = system: Mycobacterium abscessus ATCC 19977 Eis2 Y255*; test: as above
Procedure: as §1

C[C@@H]1NC(=O)[C@@H](N)CNC(=O)[C@H](C2CCNC(=N)N2)NC(=O)/C(=C/NC(N)=O)NC(=O)[C@H](CNC(=O)CC(N)CCCN)NC1=O.N=C1NCCC([C@@H]2NC(=O)/C(=C/NC(N)=O)NC(=O)[C@H](CNC(=O)CC(N)CCCN)NC(=O)[C@H](CO)NC(=O)[C@@H](N)CNC2=O)N1 (stereo partly specified) [capreomycin]
Conditions | IC50 [µg/mL]
[1] | 3.51
[2] | 3.57
[3] | 3.51
[4] | 3.6
[5] | 3.52
[6] | 3.49
[7] | 3.38
[8] | 3.4
[9] | 3.53
[10] | 3.71
[11] | 3.66
[12] | 3.55

Conditions | growth [%]
[13], 0.5 µg/mL | 114 ± 11
[13], 1 µg/mL | 128 ± 4.3
[13], 2 µg/mL | 136.1 ± 0.23
[13], 4 µg/mL | 13.3 ± 0.78
[13], 8 µg/mL | 1.32 ± 0.14
[13], 16 µg/mL | 0.68 ± 0.074
[13], 32 µg/mL | 0.343 ± 0.054
[13], 64 µg/mL | 0.195 ± 0.3
[13], 128 µg/mL | -0.116 ± 0.063
[13], 256 µg/mL | 0.482 ± 0.15
[13], 512 µg/mL | 1 ± 0.092
[13], 1024 µg/mL | 1.1 ± 0.048
[14], 0.5 µg/mL | 111 ± 2.3
[14], 1 µg/mL | 133 ± 5.1
[14], 2 µg/mL | 155 ± 7.5
[14], 4 µg/mL | 6.4 ± 1.5
[14], 8 µg/mL | -0.338 ± 4.3
[14], 16 µg/mL | -0.815 ± 4.3
[14], 32 µg/mL | -1.5 ± 3.7
[14], 64 µg/mL | 7.37 ± 8.6
[14], 128 µg/mL | -1.6 ± 4.6
[14], 256 µg/mL | -1.48 ± 4.6
[14], 512 µg/mL | -0.81 ± 5.1
[14], 1024 µg/mL | -0.752 ± 4.7
[15], 0.5 µg/mL | 116 ± 1.5
[15], 1 µg/mL | 116 ± 3
[15], 2 µg/mL | 136 ± 2.6
[15], 4 µg/mL | 13.4 ± 1.8
[15], 8 µg/mL | 1.25 ± 0.64
[15], 16 µg/mL | -0.0257 ± 1.6
[15], 32 µg/mL | 0.128 ± 0.83
[15], 64 µg/mL | -0.0579 ± 0.54
[15], 128 µg/mL | -0.442 ± 0.23
[15], 256 µg/mL | -0.208 ± 0.5
[15], 512 µg/mL | 0.668 ± 0.63
[15], 1024 µg/mL | 1 ± 1
[16], 0.5 µg/mL | 106 ± 2
[16], 1 µg/mL | 119 ± 1.3
[16], 2 µg/mL | 137 ± 2.3
[16], 4 µg/mL | 26.1 ± 1.9
[16], 8 µg/mL | 2.69 ± 1.9
[16], 16 µg/mL | 0.457 ± 0.43
[16], 32 µg/mL | -0.264 ± 0.034
[16], 64 µg/mL | -0.648 ± 0.28
[16], 128 µg/mL | 1.68 ± 3.4
[16], 256 µg/mL | -0.363 ± 0.11
[16], 512 µg/mL | 0.101 ± 0.088
[16], 1024 µg/mL | 0.656 ± 0.048
[17], 0.5 µg/mL | 121 ± 3.3
[17], 1 µg/mL | 121.5 ± 0.95
[17], 2 µg/mL | 139 ± 4.8
[17], 4 µg/mL | 18.1 ± 1
[17], 8 µg/mL | 2.85 ± 0.57
[17], 16 µg/mL | 0.96 ± 0.37
[17], 32 µg/mL | 0.251 ± 0.073
[17], 64 µg/mL | -0.229 ± 0.044
[17], 128 µg/mL | -0.471 ± 0.26
[17], 256 µg/mL | 0.518 ± 0.15
[17], 512 µg/mL | 0.442 ± 0.54
[17], 1024 µg/mL | 1.21 ± 0.09
[18], 0.5 µg/mL | 119.1 ± 0.76
[18], 1 µg/mL | 120 ± 2.6
[18], 2 µg/mL | 135 ± 1.7
[18], 4 µg/mL | 11.4 ± 0.31
[18], 8 µg/mL | 1.48 ± 0.31
[18], 16 µg/mL | 1.16 ± 0.24
[18], 32 µg/mL | 0.805 ± 0.51
[18], 64 µg/mL | 0.28 ± 0.13
[18], 128 µg/mL | 0.576 ± 0.28
[18], 256 µg/mL | 0.201 ± 0.061
[18], 512 µg/mL | 0.913 ± 0.28
[18], 1024 µg/mL | 1.6 ± 0.36
[19], 0.5 µg/mL | 123.8 ± 1.1
[19], 1 µg/mL | 126 ± 4.8
[19], 2 µg/mL | 150 ± 12
[19], 4 µg/mL | 20.2 ± 2.3
[19], 8 µg/mL | 21.8 ± 24
[19], 16 µg/mL | 1.97 ± 0.18
[19], 32 µg/mL | 1.24 ± 0.85
[19], 64 µg/mL | 1.33 ± 0.43
[19], 128 µg/mL | 1.37 ± 0.23
[19], 256 µg/mL | 1.64 ± 0.28
[19], 512 µg/mL | 2.29 ± 0.34
[19], 1024 µg/mL | 2.65 ± 0.34
[20], 0.5 µg/mL | 114 ± 2.2
[20], 1 µg/mL | 122 ± 8.8
[20], 2 µg/mL | 146 ± 2.3
[20], 4 µg/mL | 19.1 ± 5.7
[20], 8 µg/mL | 16.6 ± 20
[20], 16 µg/mL | 0.686 ± 0.39
[20], 32 µg/mL | 0.587 ± 0.61
[20], 64 µg/mL | -0.0268 ± 0.56
[20], 128 µg/mL | -0.0162 ± 0.1
[20], 256 µg/mL | 0.338 ± 0.45
[20], 512 µg/mL | 1.07 ± 0.36
[20], 1024 µg/mL | 1.58 ± 0.63
[21], 0.5 µg/mL | 118 ± 3.9
[21], 1 µg/mL | 126 ± 6
[21], 2 µg/mL | 140 ± 5.2
[21], 4 µg/mL | 23.1 ± 1.3
[21], 8 µg/mL | 4.73 ± 0.15
[21], 16 µg/mL | 1.31 ± 0.58
[21], 32 µg/mL | 0.876 ± 0.17
[21], 64 µg/mL | 0.449 ± 0.51
[21], 128 µg/mL | -0.0341 ± 0.94
[21], 256 µg/mL | 0.766 ± 0.056
[21], 512 µg/mL | 0.987 ± 0.53
[21], 1024 µg/mL | 1.55 ± 0.77
[22], 0.5 µg/mL | 116 ± 5.5
[22], 1 µg/mL | 118 ± 10
[22], 2 µg/mL | 130 ± 2.9
[22], 4 µg/mL | 19.3 ± 7.6
[22], 8 µg/mL | -0.988 ± 0.54
[22], 16 µg/mL | -2.1 ± 1.2
[22], 32 µg/mL | -2.36 ± 0.1
[22], 64 µg/mL | -2.07 ± 1.3
[22], 128 µg/mL | -1.98 ± 1.3
[22], 256 µg/mL | -1.82 ± 0.97
[22], 512 µg/mL | 0.33 ± 2.9
[22], 1024 µg/mL | -0.694 ± 1.1
[23], 0.5 µg/mL | 113 ± 14
[23], 1 µg/mL | 119.5 ± 0.7
[23], 2 µg/mL | 134.37 ± 0.0069
[23], 4 µg/mL | 29.4 ± 17
[23], 8 µg/mL | 1.54 ± 0.083
[23], 16 µg/mL | 0.295 ± 0.25
[23], 32 µg/mL | -0.237 ± 0.35
[23], 64 µg/mL | -0.654 ± 0.75
[23], 128 µg/mL | -0.5 ± 0.014
[23], 256 µg/mL | -0.403 ± 0.074
[23], 512 µg/mL | 0.194 ± 0.017
[23], 1024 µg/mL | 0.34 ± 0.24
[24], 0.5 µg/mL | 113.8 ± 0.25
[24], 1 µg/mL | 126.2 ± 0.97
[24], 2 µg/mL | 143 ± 6
[24], 4 µg/mL | 15.7 ± 0.7
[24], 8 µg/mL | 0.798 ± 2
[24], 16 µg/mL | -0.497 ± 2.8
[24], 32 µg/mL | -0.78 ± 2.5
[24], 64 µg/mL | -1.06 ± 2.1
[24], 128 µg/mL | -1.38 ± 2.2
[24], 256 µg/mL | -0.716 ± 2.7
[24], 512 µg/mL | -0.456 ± 2.3
[24], 1024 µg/mL | -0.208 ± 1.8

± gives the standard deviation of the averaged measurements. M. abscessus ATCC 19977 and its deletion, point and complemented mutants after 5 days of drug at 37 °C plus 24 h of resazurin. Growth in % of untreated wells at the dose given (lower = more inhibition); checkerboards give % inhibition (higher = more inhibition); IC50 from the fitted curve (lower = more potent). No active / inactive call. IC50 values come from the same 384-well curves. Growth is not capped and can exceed 100%. The direction of the checkerboard scale is read from the raw signals. Capreomycin is a mixture.
